The subject of assay [1] is EKVX NSCLC. The experiment in a line: NCI-60 one-dose screen, 48 h (100 = growth as untreated, 0 = no growth, -100 = all killed). The settings on record: 25 µM.
For assay [2], the system named is SK-OV-3 ovarian. The description is as above. Conditions: 0.25 µM.

Some structures have more than one record in an assay (separate samples or runs), and their calls can disagree.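 Interpretation: 100, growth as untreated; towards 0, rising growth inhibition; 0, no net growth; 0 to -100, cell death. Compounds scoring below 10 were considered active.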 Not every entry of the source has a single result; some have several. They are shown here; other results are not. There may be further records. The screen tested this drug many times, at its own concentration, as given; one value stands for one run. Counts like (3×) say how often a value occurs here.

Take `COc1cccc2c1C(=O)c1c(O)c3c(c(O)c1C2=O)C[C@@](O)(C(=O)CO)C[C@@H]3OC1CC(N)C(O)C(C)O1` (stereo not given in full): the growth result is “inactive: 106%, 22% and active: -74.9, -33.2, -2.53, 9.45, -28.6, 8.93, 5.69, -71.8, -23.6, -23.3, -54.4, -32.5, -22.8, -43.7, -38.3, -55.5, -56.1, -45.5, -45.4, -23.5, -52.2, -51.5, -7.69, -44.5, -23.1, -29.8, -14.6, -35%” in assay [1] (runs of 1994); “active: -36.4, -53.1, -34.5, -42.9, -46.2, -44.6, -0.783, -6.92, -47.6, -10.1, -30.1, -30.5, -45.9, -49.4, -44.9, -54.3, -10.3, -67.9, -59.1, -18, -12.4, -29.3, -14.6, -41.6, 8.54, -13.6, -19.9, -8.33, -27.4, -47.4, -22.3 (2×), -46.3, -7.18, -8.96, -67.6, -21.6, -40.7%” in assay [1] (runs of 1995); “active: -52, -32.3, -38.5, -23.6, -5.77, -47.2, -16.3, -15.2, -18.1, -36.9, 7.38, 8.39, -15.8, -7.42, -11.9, -12.8, -39.9, -40.1, -28.3, -6.52, -26.7, -37.7, -33.8, -52.2, -34.1, -37.8, -61.7, -44.5, -21.8, -55.7, -38.7, -49.8, -53.7, -26.1, -35.5, -54.9, -51.3, -59.6, -56.6, -39.4, 5.8, -27.5, -24.4, -29.7, -15.9, -48, -34, -34.4 (2×), -38.2, -32.1, -26.6, -61.5, -17.8, -33.5% and inactive: 39.1%, 13%” in assay [1] (runs of 1996); “active: -50.4, -22, -12, -52.7, -60.4, -45.5, -57, -64.9, 9.91, -34.9, -64.6, -21.5, -65.8, -43.2, -10.1, -53.5, -63.1, -21.3, -24.1, -41.2, -28.3, -26.9, -22.3, -29.5, -39.9, -41.7, -12.1, -61.6, -23.9, -9.41, -19.7, -25.3, 3.43, -23.2, -41.6 (2×), -19.2, -6.33, -38, -31.2% and inactive: 21.7, 12.9, 10.5, 26.4%” in assay [1] (runs of 1997); “active: -0.842, -31.3, -36.6, -6.25, -25.4, -41, -25.7, -32.7, -36.9, -27.6, -41.2, -14.6, -54.8, -1.84, -20.4, -60.7, -59.6, -33.3, -52.2, -43.5, -12.8, -28.6, -73.2, -48.1% and inactive: 31.9%” in assay [1] (runs of 1998); “active: -37.8, -32.8, -52.2, -20.6, -51.7, -86.7, -98.6, -50, -95, -72.2, -17.7, -89.7% and inactive: 20.4%” in assay [1] (runs of 1999). For the same molecule, the growth entry in assay [1] (runs of 2000) is “active: -54.3%, -100%, -70.5%”; in assay [2] (runs of 2006), “inactive: 46%, 41.9%”; in assay [2] (runs of 2007), “inactive: 39.9, 54.1, 50.3, 51.5, 46.5, 53, 37.4, 61.5, 54.3, 71.1, 65.4, 62.2, 68.3, 60.5, 70.8, 42.8, 24.8, 46.4, 56.2, 47.5, 62.4, 60.7, 32.5, 40.8, 52.7, 48.3, 66.5, 36.4, 54.9, 48.4, 39, 38.8, 29.5, 37.3, 46.1, 45.1, 26.8, 15.4, 17.1, 30, 34.4, 38.4%”; in assay [2] (runs of 2008), “inactive: 51.3, 39.9, 32.1, 39.5, 49.1, 67.1, 64.1, 50.6, 54.5, 52.6, 48.2, 45.3, 31.1, 46.7, 47.7, 21.8, 23.5, 44, 34.2 (2×), 27.5, 42.8, 35.3, 49.3, 48.8, 47.6, 96.5, 43.7, 36.1, 32.2, 32.6, 21.3, 11.4, 33.7 (2×), 17.3, 26.8, 16.9, 28, 37.6, 36, 28.4, 36.9, 35.9, 51.8, 49.9, 36.7, 29.3, 12.3, 48.5, 32.5, 27.4% and active: 6.24%”; in assay [2] (runs of 2009), “inactive: 31.2 (2×), 34, 21.8, 27.4, 32.4, 39.8, 60, 40.9, 31.6, 28, 58.5, 60.7, 32.3, 40.3, 39.5, 25.9, 16.7, 36.1 (2×), 39.3, 35.6, 24.6, 28.4, 29.1, 30.9 (2×), 32.7, 43.8, 28.9, 60.1, 46.1, 30.6, 24.9, 34.7, 44.9, 24.1, 34.4, 23.8, 15.5, 10.4, 12.6, 24, 18.6, 24.2, 21, 27.8, 24.8 (2×), 18.1, 17.8, 26.1, 37.7, 34.1, 15.8, 42.8, 14.6, 34.2, 32.1 (2×), 48.3, 44, 57, 42.6, 36.4, 29.4, 37.6% and active: 4.94%, 6.74%, 7.92%”; in assay [2] (runs of 2010), “inactive: 40.8, 41.8, 42, 35.1, 39.1, 35.9, 46.7 (2×), 32.9, 45.5, 55.8 (2×), 45.1, 38.9, 42.1, 39.5, 50.6, 45.7, 38.6, 42.5 (2×), 44.5, 19.4, 35.6, 22.4, 39.8 (2×), 44.6, 45.6, 47.8, 44.9, 45.8, 54.1, 54.3, 26.5, 51.9, 51.3, 47.6, 52.2, 46.9, 43.7, 36.5, 35.8, 33.6, 48.5, 54.4, 50.7, 52.6, 42.4, 49.5, 56.2, 48.3, 52.5, 53.5, 50.9, 51.7%”. Besides, the growth result in assay [2] (runs of 2011) is “inactive: 48, 49.1, 45.5 (2×), 51.4, 48.6, 39.6, 42.8, 56.6, 48.9, 38.7, 55.3, 68, 57.4, 59.4, 53.1, 59.6, 64, 60.6, 58.7, 54.4, 51.9, 64.5, 47.7, 51.8, 31.5, 42.6 (2×), 28.2, 41.6, 33.2, 37.5, 47.4, 45.7, 36.9, 44.9, 42.3, 37.6, 30.2, 35.9, 52.7, 54.2, 48.7, 52.4, 48.8, 54, 36.8, 39.4, 47.8, 50.3, 49.7%”; in assay [2] (runs of 2012) it was “inactive: 51.8, 40.7, 54.2 (2×), 53.2, 54.3, 48.4, 49.1 (2×), 59.8, 62.7, 53.9, 53.8, 49.7, 46.4, 46.5, 50.8, 39.4, 47.8, 47.4 (2×), 30.6, 54.9, 60.3, 45.6, 50, 56.6, 55.1, 52.5, 56.5, 57.6, 63.3, 56.3, 64.7, 59.5 (2×), 58.1, 55.7, 48.6, 59.3, 60.6, 58.4, 68.9, 56.9, 52.1, 68.1, 42.8, 43.6, 58.7, 62.9, 62.4, 70.1, 72.2, 76.4, 79.9, 84.2, 78.5, 67.5, 86.6, 81.7, 81.3, 97.8, 65.8, 68.8, 67.4, 68.3, 52.2, 47.6, 32.6, 20.2, 36.5, 37.8, 54.7%”; in assay [2] (runs of 2013), “inactive: 55.1, 57.2, 47.2, 49.4, 53.5, 47.5, 68, 66.4, 61.3 (2×), 62.1, 51.4, 56.8 (2×), 63.9, 74, 71.8, 76.8 (2×), 73.6, 72.5, 63.3, 63.2, 56.1, 65.3, 70.7, 58.5 (2×), 74.3, 69.2, 75.6, 85.5, 74.8, 73.1, 66.6, 68.6, 81, 80.5, 80, 76.3, 77.6, 67.8, 81.3, 76.5, 83.2, 90.2, 84, 79.2, 76.6, 80.4, 90.4, 68.8, 81.5, 74.5, 59.1, 67.1, 58.6, 77.9, 64.7, 65.5, 66.8, 54.4 (2×), 54.7, 60.4, 53.7, 50, 54.1, 52.5, 64.4, 72.4, 80.2, 39.2, 60.6, 36.2, 40.2, 34%”.

Source of the values: PubChem BioAssay (NCI).
